To fix the notation:
B1: TPR 5TU (parent)
chain: GGAUCUUCUCGAUCUAACAAAAAAGACAAAUCUGCCACAAAGCUUGAGAGCAUCUUCGGAUGCAGAGGCGGCAGCCUUCGGUGGCGCGAUAGCGCCAACGUUCUCAACUAUGACACGCAAAACGCGUGCUCCGUUGAAUGGAGUUUAUCAUG

Variants at the background level are over-represented here. Where only a bound is given, the exact number is not on record here.

Variants of B1 are the subject of the series. The series can be described thus: polymerase ribozyme fitness, log enrichment relative to wild type (log ratio); higher = more active; in vitro selection for triplet polymerase activity. The gist of the method:
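Frozen incubation at −7 °C formed the core of a single, triplicate in vitro selection round applied to PCR-built, transcribed mutant libraries of each subunit of a heterodimeric triplet polymerase ribozyme. Extended constructs were gel-excised, captured with streptavidin beads and amplified by RT-PCR, and input and output libraries were Illumina-sequenced with a filter of ≥10 input reads and ≥1 read per output. Fitness is the logarithm of genotype enrichment relative to wild-type enrichment, with inverse-variance-weighted replicate averaging, and the logarithm is base 2.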
A16U A40G U45A C79U C85U A107U G141A: the “polymerase ribozyme fitness (log ratio)” value was no more than -4.2.
The result for C18G A29U A47C A49U U78A C87A A98U U102G A138G A142G reads no more than -4.2; that for A17G C27G U33G A49C C57A A73C C75U C99G A106C A115G U148A, no more than -4.2; that for U15A A22U A39C A64G C72U C96U A97C C125U A137U, no more than -4.2.
As for A16C A29G C54G G58A G84U C131A U148C A150C, the figure is no more than -4.2; as for A16U C63A A91G G92U C123A U134A U145G, no more than -4.2.
The result for A17U A52G G58C G86U A97G C125A A142C reads no more than -4.2.
With A16U A17U C79G G83A A122G, the “polymerase ribozyme fitness (log ratio)” value was no more than -4.2.
As for A17C G25C U44C A49C U55A G62C U78A G88U, the figure is no more than -4.2; as for U15A C76U C85A G92C U109A C129A G136C, no more than -4.2.
For the variant U15G A16C C51A C76U U90C A120G A150G, the “polymerase ribozyme fitness (log ratio)” value is no more than -4.2.
With U15G C54G C85U G86A U111C, the “polymerase ribozyme fitness (log ratio)” value was no more than -4.2.
As for A17G A40U A52C C87A A89G C105G C123G A150G, the figure is no more than -4.2; as for A16U C43A A52U G58U C75A C93G A137C G140U, no more than -4.2.
For U15A A19C G68U C93A U130G, the “polymerase ribozyme fitness (log ratio)” value is no more than -4.2.
For C14U U61A A73G C108G U109G, the “polymerase ribozyme fitness (log ratio)” value is no more than -4.2.
The result for U15G A37C C43U C57G A97G reads no more than -4.2; that for A17C G48A U55G C85U G86C C87A A89C C123A G136A U145C, no more than -4.2.
As for A16U G74C U101C C116U G143U, the figure is no more than -4.2.
As for U15G A24U A138G, the figure is no more than -4.2.
A16G A91C C105G U151C: the “polymerase ribozyme fitness (log ratio)” value was no more than -4.2.
As for A16U C27G C75G C85G C103G C105U U135A A147C, the “polymerase ribozyme fitness (log ratio)” value is no more than -4.2.
As for A16G A52U C57U G65A G88A C125U, the figure is no more than -4.2; as for A16U C27G A30C U82C G92U C129A C131U A150C, no more than -4.2; as for A16G C27A A39G G65U G71A A73G C96U, no more than -4.2.
C18G A21U A24G U53A U82C A121G G126U G141C: the “polymerase ribozyme fitness (log ratio)” value was no more than -4.2.
A17G A30C C51U G81C C96U U101G U144C: the “polymerase ribozyme fitness (log ratio)” value was no more than -4.2.
As for A17C A21C C54U A91U U145G, the figure is no more than -4.2; as for A16G A24G C27G A41U U53A U78C G124A, no more than -4.2; as for A17C A23G G25U A28G C57U G58C G68A C93U C96G, no more than -4.2.
For the variant C18G A19G A52C U78A G84U U135A, the “polymerase ribozyme fitness (log ratio)” value was no more than -4.2.
On to A16U A23C U61G U104C A107G A119C A142U, for which the “polymerase ribozyme fitness (log ratio)” value is no more than -4.2.
As for A17G A64U G83U C95U A147C, the figure is no more than -4.2; as for A16U C38A A40G C95G A150G, no more than -4.2; as for A16G A24C G50U A52G U101G C103A C118U A121G G143U, no more than -4.2.
As for A16U G94A A119C C132G A138U, the figure is no more than -4.2; as for A17G A19U U31A C35U A52G G74U G88A, no more than -4.2; as for C18A U53A G65U G67C G83C, no more than -4.2.
The result for A16U U33C C35U U45A A47G G70A G94A C125U U127A reads no more than -4.2; that for A16U A30C A47C C54G G71A G84U C95G C105U, no more than -4.2.
With A16U G42A G88A C129A, the “polymerase ribozyme fitness (log ratio)” value is no more than -4.2.
Regarding U15G A26C U31C U44G G46A C87U U101G C105U A106C U139C, the “polymerase ribozyme fitness (log ratio)” value is no more than -4.2.
As for A17G G88U C96A, the “polymerase ribozyme fitness (log ratio)” value was no more than -4.2.
The result for A17G A64C C75U G83A reads no more than -4.2.
As for A16C C85U C149G, the figure is no more than -4.2; as for A17C C27U A41U G58C G94U G136C, no more than -4.2; as for A17U U61A G84A U90G A119C C123A U148A, no more than -4.2.
Consider A16C A29C C38U G58C C85U C118U A122U G141A U146C, for which the “polymerase ribozyme fitness (log ratio)” value was no more than -4.2.
The result for A17C A47G C75A C85G U148A U151A reads no more than -4.2; that for A16G A29U C36A U56A C93U A97G U102G G124C U139G, no more than -4.2.
In the case of A17U G50C A60U A119C A142G G143A, the “polymerase ribozyme fitness (log ratio)” value was no more than -4.2.
For the variant A17G A39U A40U A91U G92C C116G G141C U151G, the “polymerase ribozyme fitness (log ratio)” value is no more than -4.2.
As to U15A A17U U33G G65A C76U G94A, the “polymerase ribozyme fitness (log ratio)” value is no more than -4.2.
The result for A17C A21C C27G G58U C95A reads no more than -4.2; that for U15A A52C A66C G84U C114A G136U, no more than -4.2.
The result for A17U A19C C103G C108U reads no more than -4.2; that for A17C C18G G46A G128U C131G, no more than -4.2.
As for A16G G48C U53A G92C C99U C105U U127G, the figure is no more than -4.2; as for A17U A97U A107G, no more than -4.2; as for A17U A30C U53A G65U G83A, no more than -4.2.
With A16G A26U C72A C103G A142G, the “polymerase ribozyme fitness (log ratio)” value is no more than -4.2.
The result for A16U G48U C72G C85U U109G G117U C129A reads no more than -4.2; that for A16G U33C C85G, no more than -4.2.
The result for A17U G50C G83C C87U reads no more than -4.2; that for A16U C18U C36U C76U G92C C93A, no more than -4.2.
The result for A17C A20G A30U U31C A49U C51A U55A A91G A98G G112C G117U C118A reads no more than -4.2.
Consider A16U A21U A138C, for which the “polymerase ribozyme fitness (log ratio)” value was no more than -4.2.
Consider U15G C27G U55C A73U C85G U101G G126A, for which the “polymerase ribozyme fitness (log ratio)” value is no more than -4.2.
The result for A16U G42C C87G A89U A106U reads no more than -4.2; that for A16G A22C C85U U134A G141A, no more than -4.2; that for A17C A30C A73G C87A, no more than -4.2.
The result for A16U G50A A52C U53G U56A A73G C93U A98U A115G reads no more than -4.2.
The result for A17U A21U A47C C54A A97U A106C A107U reads no more than -4.2; that for U15G A28C A37U A39U G83C C132U A142C, no more than -4.2; that for C18A C27U G84A C129G G133A, no more than -4.2.
As for U15G G25A G50C A52G C95U G133U, the “polymerase ribozyme fitness (log ratio)” value is no more than -4.2.
The result for U15G A19U U31A G70A reads no more than -4.2.
As for A16U A19U A49U U53C C93U C108A, the figure is no more than -4.2; as for A17G C18G G50C C72U C85G C95A, no more than -4.2; as for A17U A24U A40C G48U G84U U101A A142C, no more than -4.2.
For A17U A40C G46A C76A C95A C125U, the “polymerase ribozyme fitness (log ratio)” value was no more than -4.2.
As for A17C A89G C96A G124C C129A G143C U145A, the figure is no more than -4.2; as for C18G A23U A24G C38U U61A C87G U145A, no more than -4.2.
